Some of the results follow.
Key:
HSkMC = human skeletal muscle cells; test: cytotoxicity call (relative viability < 0.9); settings: 10 µM
HepG2 = test: cytotoxicity call (relative viability < 0.9); settings: 10 µM
S. aureus RN4220 = test: growth inhibition call (relative growth <= 0.2); settings: 50 µM

SMILES | cytotoxicity call (HSkMC) | cytotoxicity call (HepG2) | growth inhibition call (S. aureus RN4220)
COc1ccc(CN(C)C[C@@H]2OCCCC[C@H](C)Oc3ccc(NS(=O)(=O)c4c(C)noc4C)cc3C(=O)N([C@@H](C)CO)C[C@@H]2C)cc1 | inactive | inactive | inactive
O=C(C[C@H]1CC[C@H](NC(=O)c2cnccn2)[C@@H](CO)O1)NCc1ccccc1F | inactive | inactive | inactive
C[C@H](CO)N1C[C@H](C)[C@@H](CN(C)C(=O)Cc2ccncc2)Oc2ncc(C#CC3(O)CCCC3)cc2C1=O | inactive | inactive | inactive
Cc1ccc(S(=O)(=O)Nc2ccc3c(c2)C(=O)N([C@H](C)CO)C[C@@H](C)[C@@H](CN(C)C(=O)Nc2ccccc2)OCCCC[C@@H](C)O3)cc1 | inactive | inactive | inactive
O=C(O)CNC(=O)[C@H]1COc2ccccc2O1 | inactive | inactive | inactive
C[C@@H]1CN([C@@H](C)CO)C(=O)c2cc(NS(C)(=O)=O)ccc2O[C@@H]1CN(C)S(=O)(=O)c1ccccc1 | inactive | inactive | inactive
C[C@@H]1CCCCO[C@H](CN(C)C(=O)Nc2cccc3ccccc23)[C@@H](C)CN([C@H](C)CO)C(=O)c2cc(NS(C)(=O)=O)ccc2O1 | inactive | inactive | inactive
O=C(N[C@H]1CC[C@H](CC(=O)N2CCOCC2)O[C@H]1CO)c1ccccn1 | inactive | inactive | inactive
Cn1c(=O)c2c(nc(N3CCOCC3)n2CCCN)n(C)c1=O | inactive | inactive | inactive
Cc1ccc(S(=O)(=O)Nc2ccc3c(c2)C(=O)N([C@@H](C)CO)C[C@H](C)[C@H](CN(C)Cc2ccc(-c4ccccc4)cc2)O3)cc1 | inactive | inactive | inactive
C[C@@H]1CCCCO[C@@H](CN(C)C(=O)Nc2ccc(F)cc2)[C@H](C)CN([C@H](C)CO)C(=O)c2cc(NS(=O)(=O)c3ccc(Cl)cc3)ccc2O1 | inactive | active | inactive
COc1ccc(F)c(C(=O)N2CCN(CCO)[C@@H]3CS(=O)(=O)C[C@@H]32)c1F | inactive | inactive | inactive
C[C@H]1CCCCO[C@H](CN(C)S(=O)(=O)c2ccccc2)[C@@H](C)CN([C@@H](C)CO)C(=O)c2cc(NC(=O)Nc3ccc(F)cc3)ccc2O1 | inactive | active | inactive
CC(C)[C@@H](N)c1nccn1C | inactive | inactive | inactive
COc1ccc2c3c(n(c2c1)C)[C@@H](CO)N(C[C@]13CCN(CC1)C(=O)CN1CCOCC1)C(=O)Nc1ccc(cc1)F | inactive | inactive | inactive
COCCNC(=O)C[C@@H]1C[C@@H]2c3cc(NC(=O)Nc4ccc(C(F)(F)F)cc4)ccc3O[C@@H]2[C@H](CO)O1 | inactive | inactive | inactive
O=C(C[C@H]1C=C[C@H](NC(=O)C2CCOCC2)[C@H](CO)O1)NCCc1cscn1 | inactive | inactive | inactive
C[C@@H]1CCCCO[C@@H](CN(C)C(=O)C2CCCCC2)[C@@H](C)CN([C@@H](C)CO)C(=O)c2cc(NS(=O)(=O)c3ccc(Cl)cc3)ccc2O1 | inactive | inactive | inactive
C[C@H]1CCCCO[C@H](CN(C)S(=O)(=O)c2ccc(F)cc2)[C@@H](C)CN([C@@H](C)CO)C(=O)c2cc(NC(=O)C3CCCCC3)ccc2O1 | inactive | inactive | inactive
COc1ccc(cc1)S(=O)(=O)N1C[C@]2(C1)CN([C@H](CO)c1c2c2ccc(cc2n1C)OC)C(=O)CN(C)C | inactive | active | inactive
CC1(C(=O)O)CCC2(C)CCC3(C)C(=CC(=O)C4C5(C)CCC(OC6OC(C(=O)O)C(O)C(O)C6OC6OC(C(=O)O)C(O)C(O)C6O)C(C)(C)C5CCC43C)C2C1 (configuration not stated) | inactive | inactive | inactive
COc1ccc(S(=O)(=O)N(C)C[C@@H]2Oc3ccc(NC(=O)C4CC4)cc3C(=O)N([C@H](C)CO)C[C@@H]2C)cc1 | inactive | inactive | inactive
COc1ccc([Si](C)(C)[C@H]2[C@H](CCO)O[C@@]3(C(=O)N(Cc4cccc(N5C(=O)c6cccc7cccc5c67)c4)c4ccccc43)[C@@H]2C)cc1 | inactive | active | inactive
C[C@H](CO)N1C[C@H](C)[C@@H](CN(C)S(C)(=O)=O)Oc2ccc(NC(=O)Nc3ccc4c(c3)OCO4)cc2CC1=O | inactive | inactive | inactive
COCCOC(=O)N1C(=O)[C@@]2(c3cc(C#CC4=CCCCC4)ccc31)[C@H](C(=O)N1CCN(c3ncccn3)CC1)[C@H]1C(=O)O[C@H](c3ccccc3)[C@H](c3ccccc3)N1[C@@H]2c1ccc(O)cc1 | inactive | inactive | inactive
COCc1cn(CC[C@@H]2CC[C@@H](NC(=O)CCN3CCCCC3)[C@@H](CO)O2)nn1 | inactive | inactive | inactive
C[C@H](CO)N1C[C@H](C)[C@H](CN(C)C(=O)Cc2cccnc2)Oc2cc(-c3cncnc3)ccc2S1(=O)=O | inactive | inactive | inactive

SMILES | cytotoxicity call (HSkMC) | cytotoxicity call (HepG2) | growth inhibition call (S. aureus RN4220)
Cc1ccc(S(=O)(=O)Nc2ccc3c(c2)C(=O)N([C@@H](C)CO)C[C@@H](C)[C@H](CN(C)C(=O)Nc2cccc4ccccc24)OCCCC[C@@H](C)O3)cc1 | inactive | inactive | inactive
CCNC(=O)C[C@@H]1CC[C@H]2[C@@H](COC[C@@H](O)CN2C(=O)Nc2c(C)noc2C)O1 | inactive | inactive | inactive
CC(C)NC(=O)N(C)C[C@@H]1Oc2ccc(NC(=O)C3CCCCC3)cc2C(=O)N([C@@H](C)CO)C[C@H]1C | inactive | inactive | inactive
C[C@@H]1CN([C@H](C)CO)C(=O)CCCn2nncc2CO[C@H]1CN(C)S(=O)(=O)c1ccc(C#N)cc1 | inactive | inactive | inactive
O=c1ccn([C@H]2O[C@H](CO)[C@@H](O)[C@@H]2O)c(=S)[nH]1 | inactive | active | inactive
CNC1CC(N)C(O)C(OC2OC(CO)C3OC4(OC(C(N)CO)C(O)C(O)C4O)OC3C2O)C1O (configuration not stated) | inactive | inactive | inactive
COc1ccc(S(=O)(=O)N(C)C[C@@H]2Oc3ccc(NC(=O)Nc4c(C)noc4C)cc3C(=O)N([C@H](C)CO)C[C@H]2C)cc1 | inactive | inactive | inactive
Cc1ccccc1S(=O)(=O)N1C[C@H](O)COC[C@H]2O[C@H](CC(=O)N3CCN(C)CC3)CC[C@@H]21 | inactive | inactive | inactive
CCCN(C)C[C@@H]1OCCCC[C@@H](C)Oc2ccc(NC(=O)Nc3ccc4c(c3)OCO4)cc2C(=O)N([C@H](C)CO)C[C@H]1C | inactive | inactive | inactive
Cn1cnc(S(=O)(=O)N2C[C@H](O)COC[C@H]3O[C@H](CC(=O)N4CCN(c5ccccc5)CC4)CC[C@@H]32)c1 | inactive | inactive | inactive
CC(C)NC(=O)N(C)C[C@@H]1Oc2ccc(NS(=O)(=O)c3cn(C)cn3)cc2CC(=O)N([C@H](C)CO)C[C@H]1C | inactive | inactive | inactive
O=C(CCCCCNC(=O)OCc1ccc(CO[C@@H]2C[C@H](c3ccc(Br)cc3)C=C(C(=O)N3CCCCCCC3)O2)cc1)NO | inactive | inactive | inactive
Nc1ccn([C@H]2O[C@@H](CO)[C@@H](O)[C@@H]2O)c(=O)n1 | inactive | inactive | inactive
C=CCC[C@H](Cc1ccc(F)cc1)C(=O)OC[C@H](Cc1c[nH]c2ccccc12)NC(=O)[C@@H](CC=C)CC(=O)N[C@H](CO)Cc1ccccc1 | active | active | inactive
COCCNC(=O)C[C@@H]1C[C@@H]2c3cc(NC(=O)Nc4ccc(C(F)(F)F)cc4)ccc3O[C@@H]2[C@@H](CO)O1 | inactive | inactive | inactive
COc1cccc(Nc2ncnn3ccc(CN4CC[C@@H](N)[C@H](O)C4)c23)c1 | inactive | inactive | inactive
Cc1noc(C)c1NC(=O)N(C)C[C@H]1Oc2ccc(NC(=O)C3CC3)cc2C(=O)N([C@H](C)CO)C[C@H]1C | inactive | inactive | inactive
C[C@@H]1CN([C@@H](C)CO)C(=O)CCCn2nncc2CO[C@@H]1CN(C)Cc1ccc2c(c1)OCCN2C | inactive | inactive | inactive
C[C@@H]1CCCCO[C@@H](CN(C)C(=O)Cc2ccccc2)[C@@H](C)CN([C@H](C)CO)C(=O)c2cc(NC(=O)Nc3ccc(C(F)(F)F)cc3)ccc2O1 | inactive | inactive | inactive
C[C@H](CO)N1C[C@H](C)[C@@H](CN(C)S(=O)(=O)c2cn(C)cn2)OCCCC[C@H](C)Oc2ccc(NS(=O)(=O)c3ccc(F)cc3)cc2C1=O | inactive | inactive | inactive
COc1ccc(NC(=O)Nc2ccc3c(c2)C(=O)N([C@@H](C)CO)C[C@@H](C)[C@H](CN(C)C(=O)NC(C)C)OCCCC[C@H](C)O3)cc1 | inactive | inactive | inactive
OC[C@H]1O[C@@H](O[C@H]2[C@H](O)[C@@H](O)[C@@H](O)O[C@@H]2CO)[C@H](O)[C@@H](O)[C@@H]1O | inactive | inactive | inactive
C[C@@H]1CN([C@H](C)CO)C(=O)c2cc(NC(=O)Nc3ccc(F)cc3)ccc2O[C@@H](C)CCCCO[C@H]1CN(C)C(=O)C1CCCCC1 | inactive | inactive | inactive
C[C@H](CO)N1C[C@H](C)[C@@H](CN(C)Cc2ccc(C(F)(F)F)cc2)Oc2ccc(NC(=O)Nc3ccccc3)cc2C1=O | inactive | active | inactive
COc1ccc(NC(=O)Nc2ccc3c(c2)C(=O)N([C@H](C)CO)C[C@@H](C)[C@H](CN(C)Cc2ccc(-c4ccccc4)cc2)O3)cc1 | inactive | active | inactive
Cc1cccc(N[C@H]2CS(=O)(=O)C[C@@H]2O)c1 | inactive | inactive | inactive
C[C@H](CO)N1C[C@H](C)[C@@H](CN(C)S(=O)(=O)c2ccccc2)Oc2ncc(-c3cccc(C(=O)N(C)C)c3)cc2C1=O | inactive | inactive | inactive

From the antibiotic and cytotoxicity screens of Wong et al. (2023)
